According to the antibiotic and cytotoxicity screens of Wong et al. (2023):
Some of the results follow.

Tests used:
HSkMC = human skeletal muscle cells; test: cytotoxicity call (relative viability < 0.9); conditions: 10 µM
HepG2 = test: cytotoxicity call (relative viability < 0.9); conditions: 10 µM
S. aureus RN4220 = test: growth inhibition call (relative growth <= 0.2); conditions: 50 µM

Row | Compound | cytotoxicity call (HSkMC) | cytotoxicity call (HepG2) | growth inhibition call (S. aureus RN4220)
1 | C[C@H]1CN([C@@H](C)CO)C(=O)c2cccc(NC(=O)c3cnccn3)c2O[C@@H]1CN(C)Cc1ccccc1 | inactive | inactive | inactive
2 | COc1ccc(NC(=O)Nc2ccc3c(c2)C(=O)N([C@H](C)CO)C[C@@H](C)[C@H](CN(C)Cc2ccc(Cl)c(Cl)c2)OCCCC[C@@H](C)O3)cc1 | active | active | inactive
3 | C[C@@H]1CN([C@H](C)CO)C(=O)CCCn2nncc2CO[C@H]1CN(C)C(=O)Nc1ccc(C(F)(F)F)cc1 | inactive | inactive | active
4 | Cc1noc(C)c1NC(=O)N(C)C[C@@H]1OCCCC[C@H](C)Oc2ccc(NC(=O)NC3CCCCC3)cc2C(=O)N([C@@H](C)CO)C[C@H]1C | inactive | inactive | inactive
5 | Cc1ccc(S(=O)(=O)N[C@@H]2CC[C@@H](CC(=O)NCc3ccc(Cl)c(Cl)c3)O[C@H]2CO)cc1 | inactive | inactive | inactive
6 | C[C@H]1CN([C@@H](C)CO)C(=O)c2cc(Br)cnc2O[C@@H]1CN(C)S(=O)(=O)c1ccc(F)cc1 | inactive | inactive | inactive
7 | O=C(C[C@H]1CC[C@@H]2[C@H](COC[C@@H](O)CN2CC2CCOCC2)O1)N1CCOCC1 | inactive | inactive | inactive
8 | C[C@@H]1CN([C@@H](C)CO)C(=O)Cc2cc(NS(C)(=O)=O)ccc2O[C@@H]1CN(C)Cc1ccc(C(=O)Nc2ccccc2N)cc1 | inactive | inactive | inactive
9 | C[C@@H]1CCCCO[C@@H](CN(C)C(=O)NC2CCCCC2)[C@@H](C)CN([C@@H](C)CO)C(=O)c2cc(NC(=O)Nc3ccc(F)cc3)ccc2O1 | inactive | inactive | inactive
10 | C[C@@H]1CN([C@@H](C)CO)C(=O)c2cccc(NC(=O)Nc3ccccc3)c2O[C@@H]1CN(C)CC1CCCCC1 | inactive | inactive | inactive
11 | CC(C)NC(=O)N(C)C[C@H]1OCCCC[C@H](C)Oc2ccc(NS(=O)(=O)c3cn(C)cn3)cc2C(=O)N([C@H](C)CO)C[C@@H]1C | inactive | inactive | inactive
12 | NC1CCN(C(=O)c2cc3ccccc3[nH]2)CC1 | inactive | inactive | inactive
13 | C[C@@H]1CN([C@@H](C)CO)C(=O)c2cc(NC(=O)Nc3ccc(C(F)(F)F)cc3)ccc2O[C@@H](C)CCCCO[C@H]1CN(C)C(=O)Nc1ccccc1 | inactive | inactive | inactive
14 | O=C(C[C@@H]1CC[C@@H]2[C@H](COC[C@@H](O)CN2C(=O)c2ccc3c(c2)OCO3)O1)NCCN1CCCC1 | inactive | inactive | inactive
15 | C[C@@H]1CN([C@H](C)CO)C(=O)c2cc(NC(=O)Nc3cccc4ccccc34)ccc2O[C@@H](C)CCCCO[C@@H]1CN(C)S(=O)(=O)c1ccc(Cl)cc1 | inactive | inactive | inactive
16 | Cc1noc(C)c1S(=O)(=O)N(C)C[C@H]1Oc2c(NC(=O)c3cnccn3)cccc2C(=O)N([C@H](C)CO)C[C@H]1C | inactive | inactive | inactive
17 | COc1ccc(S(=O)(=O)N(C)C[C@@H]2OCCCC[C@H](C)Oc3ccc(NC(=O)Nc4ccccc4)cc3C(=O)N([C@H](C)CO)C[C@H]2C)cc1 | inactive | inactive | inactive
18 | C=CC[C@@H](CC(=O)N(CCO)Cc1ccccc1)C(=O)N[C@H](COC(=O)[C@@H](CC=C)Cc1ccc(F)cc1)Cc1c[nH]c2ccccc12 | active | active | inactive
19 | CC(=O)N1[C@@H](CO)[C@@H](c2ccccc2)[C@@H]1CNC(=O)CN1CCOCC1 | inactive | inactive | inactive
20 | C[C@H](CO)N1C[C@H](C)[C@H](CN(C)C(=O)Nc2ccc3c(c2)OCO3)OCc2cn(nn2)CCCC1=O | inactive | inactive | inactive
21 | CN1C(=O)NC2(CCNCC2)C1=O | inactive | inactive | inactive
22 | O=C(C[C@H]1C=C[C@H](NS(=O)(=O)c2ccc(F)cc2)[C@H](CO)O1)NCCN1CCCCC1 | inactive | inactive | inactive

Row | Compound | cytotoxicity call (HSkMC) | cytotoxicity call (HepG2) | growth inhibition call (S. aureus RN4220)
23 | C[C@@H]1CCCCO[C@@H](CN(C)C(=O)Nc2cccc3ccccc23)[C@H](C)CN([C@@H](C)CO)C(=O)c2cc(NC(=O)CCCN(C)C)ccc2O1 | inactive | inactive | inactive
24 | C[C@@H]1CN([C@@H](C)CO)C(=O)Cc2cc(NS(=O)(=O)c3cn(C)cn3)ccc2O[C@H]1CN(C)Cc1ccccc1 | inactive | inactive | inactive
25 | C[C@@H]1CCCCO[C@@H](CN(C)C(=O)Cc2ccccc2)[C@H](C)CN([C@@H](C)CO)C(=O)c2cc(NC(=O)Nc3ccccc3)ccc2O1 | inactive | inactive | inactive
26 | Cc1noc(C)c1NC(=O)N(C)C[C@@H]1Oc2ccc(NS(C)(=O)=O)cc2C(=O)N([C@H](C)CO)C[C@H]1C | inactive | inactive | inactive
27 | NC[C@@H](O)CC(=O)O | inactive | inactive | inactive
28 | C[C@H](CO)N1C[C@H](C)[C@H](CN(C)Cc2ccccc2)OCCCC[C@H](C)Oc2ccc(NC(=O)Nc3ccc(C(F)(F)F)cc3)cc2C1=O | active | active | inactive
29 | C[C@H]1CN([C@@H](C)CO)C(=O)c2cccc(NC(=O)Nc3ccccc3)c2O[C@@H]1CN(C)S(=O)(=O)c1cn(C)cn1 | inactive | inactive | inactive
30 | C[C@H](CO)N1C[C@H](C)[C@@H](CN(C)C(=O)Cc2ccccc2)Oc2cc(-c3cncnc3)ccc2S1(=O)=O | inactive | inactive | inactive
31 | COc1ccc(CNC(=O)N(C)C[C@@H]2OCc3ccccc3-c3c(n(C)c4ccccc34)C(=O)N([C@@H](C)CO)C[C@@H]2C)cc1 | inactive | inactive | inactive
32 | C[C@H](CO)N1C[C@H](C)[C@H](CN(C)C(=O)Nc2ccc3c(c2)OCO3)OCc2ccccc2-c2c(n(C)c3ccccc23)C1=O | inactive | inactive | inactive
33 | COc1ccc(NC(=O)Nc2ccc3c(c2)CC(=O)N([C@H](C)CO)C[C@H](C)[C@@H](CN(C)Cc2ccc(Oc4ccccc4)cc2)O3)cc1 | inactive | inactive | inactive
34 | C[C@@H]1CN([C@H](C)CO)C(=O)Cc2cc(NC(=O)Cn3cnnn3)ccc2O[C@H]1CN(C)S(C)(=O)=O | inactive | inactive | inactive
35 | COc1ccccc1[C@@H](NC(=O)C1CCN(CCOc2ccc(Cl)cc2Cl)CC1)c1ccccn1 | inactive | inactive | inactive
36 | C[C@@H]1CCCCO[C@@H](CN(C)CC2CCCCC2)[C@H](C)CN([C@@H](C)CO)C(=O)c2cc(NC(=O)Nc3cccc4ccccc34)ccc2O1 | inactive | active | inactive
37 | O=C(C[C@@H]1CC[C@@H]2[C@H](COC[C@H](O)CN2C(=O)c2ccc(F)cc2)O1)NCCCN1CCOCC1 | inactive | inactive | inactive
38 | COCC#Cc1cnc2c(c1)C(=O)N([C@@H](C)CO)C[C@@H](C)[C@H](CN(C)S(=O)(=O)c1cccc(OC)c1)O2 | inactive | inactive | inactive
39 | O=S1(=O)NCC2(COC2)O1 | inactive | inactive | inactive
40 | Cc1ccc(S(=O)(=O)N(C)C[C@H]2Oc3ccc(NC(=O)c4ccncc4)cc3CC(=O)N([C@@H](C)CO)C[C@@H]2C)cc1 | inactive | inactive | inactive
41 | COCC#Cc1ccc2c(c1)O[C@@H](CN(C)S(=O)(=O)c1ccc(OC)cc1)[C@H](C)CN([C@@H](C)CO)S2(=O)=O | inactive | inactive | inactive
42 | O=C(Nc1c(Cl)cncc1Cl)c1ccc(OC(F)F)c(OCC2CC2)c1 | inactive | inactive | inactive
43 | COc1ccc(CN(C)C[C@@H]2OCCCC[C@H](C)Oc3ccc(NC(=O)CCC(F)(F)F)cc3C(=O)N([C@H](C)CO)C[C@@H]2C)cc1 | inactive | inactive | inactive
